# Reference: PubChem BioAssay AID463173 (ICCB-Longwood Screening Facility, Harvard Medical School, 2010)
# Hit rate of the full screen: of about 52,000 compounds, about 1,700 (3.3%) were called active. Cut-off read from the data, not from the text of the source: active = survival mostly below about 52% (no sharp cut-off); inactive = mostly above about 56%. This is one part of the list.
# Test system: Wild type
# Assay: growth inhibition of S. aureus wild type versus tarO mutant, primary screen, teichoic acid synthesis inhibitors, RN4220, OD600 (AID 463173)
# Details: S. aureus RN4220 wild type/DeltatarO growth, OD600, 18 h, stronger effect = lower value, screened at 18.75 µg/mL (by protocol)
row,Structure (SMILES),survival
1,COCCCNC(=O)c1cc2cc(S(=O)(=O)N3CCCCC3)ccc2n1C,inactive: 73%
2,COc1cc(CN2CCc3nc(N4CCN(c5ccccn5)CC4)ncc3C2)cc(OC)c1OC,inactive: 71%
3,CCOc1ccc(S(=O)(=O)n2nc(C)c(S(=O)(=O)N3CCCCC3)c2C)cc1,inactive: 67%
4,O=C(Nc1ccc(Cl)cc1C(F)(F)F)c1cc(S(=O)(=O)N2CCOCC2)ccc1F,inactive: 136%
5,CC(C)(C)OC(=O)N1CCC(c2c(C(=O)NCc3ccco3)cnn2-c2ccccc2Cl)CC1,inactive: 67%
6,Cc1nn(CCCC(=O)NCc2ccccc2)c(=O)c2cc3sccc3n12,inactive: 73%
7,COc1ccc(C(=O)Nc2cc3c(cc2N2CCCC2)n(C)c(=O)c(=O)n3C)cc1OC,inactive: 87%
8,CCCC(=O)n1nc(-c2cccnc2)nc1NCc1ccc(OC)cc1,inactive: 86%
9,CC(=O)c1cc(-c2ccccc2)n(CCC(=O)NC(C)c2ccccc2)c1C (configuration not stated),inactive: 60%
10,COC(=O)c1ccccc1NS(=O)(=O)c1ccc2c(c1)CCCN2C(C)=O,inactive: 65%
11,Cc1cccc(C)c1NC(=O)Cn1c(=O)n(Cc2ccc3c(c2)OCO3)c(=O)c2oc3ccccc3c21,inactive: 88%
12,O=C(c1ccccc1F)N(Cc1cccs1)c1ccc(O)cc1,inactive: 97%
13,CCOc1cc(C(=O)Nc2ccc(-c3nc4ccccc4s3)cc2Cl)cc(OCC)c1OCC,inactive: 83%
14,COc1ccccc1NC(=O)Cn1nc(-c2ccc(C)cc2)c2c(c1=O)CCCC2,inactive: 74%
15,CCOc1ccc(OCC)c(NC(=O)C(NS(=O)(=O)c2cccs2)c2ccccc2)c1 (configuration not stated),inactive: 107%
16,COc1ccc(C(=O)Nc2cc(S(=O)(=O)c3ccc(Cl)cc3)c(O)c(C)c2C)cc1,inactive: 90%
17,Fc1ccc(-n2ncc3c(NCCC4=CCCCC4)ncnc32)cc1,inactive: 59%
18,Cc1nn(C)c(C)c1N1C(=O)c2cccc3c(Br)ccc(c23)C1=O,inactive: 108%
19,Cc1ccc(CNC(=O)c2c(C)oc3nc(C)nc(N4CCOCC4)c23)cc1,inactive: 88%

row,Structure (SMILES),survival
1,CC(C)(C)c1ccc(C(=O)NCC(c2cccs2)S(=O)(=O)c2cccs2)cc1 (configuration not stated),inactive: 64%
2,CCc1ccc(-n2nc3cc(C)c(NC(=O)c4cc(OC)cc(OC)c4)cc3n2)cc1,inactive: 69%
3,Cc1c(N=Cc2cccnc2)c(=O)n(-c2ccccc2)n1C,inactive: 108%
4,Cc1cccc(CSCc2ccc(C(=O)NCCc3ccccc3)o2)c1,inactive: 68%
5,O=C(c1cc2ccccc2oc1=O)N1CCN(c2ccc(F)cc2)CC1,inactive: 65%
6,Cc1cc(C)c2c(CC(=O)Nc3ccc(S(=O)(=O)N4CCCCC4)cc3)coc2c1,inactive: 85%
7,COc1ccc(-c2ccc(CCC(=O)O)[nH]2)cc1,inactive: 123%
8,COc1ccccc1CCNC(=O)Cc1c(C)c2cc3c(C)coc3cc2oc1=O,inactive: 85%
9,CC(=O)c1ccc(NC(=O)CN(C)S(=O)(=O)c2cc3c(cc2Cl)NC(=O)CO3)cc1,inactive: 81%
10,CCCN(CCC)S(=O)(=O)c1ccc(C(=O)Nc2cccc(-c3nc4ccccc4[nH]3)c2)cc1,inactive: 78%
11,CCOc1cc(-c2ccc(OC(=O)c3ccc(C)cc3)c(OC)c2)cc(=O)c2c(C)oc(C)c12,inactive: 109%
12,Nc1c(-c2nc(-c3ccccc3)no2)nnn1CC(=O)Nc1cccc(F)c1,inactive: 56%
13,CCN(CC)CCN(C(=O)c1ccco1)c1nc2cc(C)cc(C)c2s1,inactive: 72%
14,CCOC(=O)c1ccc(Nc2c(-c3cccc(O)c3)nc3nc[nH]n23)cc1,inactive: 64%
15,N#Cc1c(-n2ncnc2-c2ccccc2C(F)(F)F)sc2c1CCCCC2,active: 4%
16,Cc1ccc(NCc2cccn2-c2nnc(N3CCC(C(=O)NCCC(C)C)CC3)s2)cc1,inactive: 102%
17,COc1cc(NC(=O)CNS(=O)(=O)c2cccs2)cc(OC)c1OC,inactive: 72%
18,O=C(Nc1ccc(NC(=O)C2CC2)nc1)c1cccc(F)c1,inactive: 105%
19,O=c1[nH]nc(-c2ccccc2)c2cc3c(=O)[nH]nc(-c4ccccc4)c3cc12,inactive: 111%

row,Structure (SMILES),survival
1,COc1cccc(C2=NS(=O)(=O)N(C)C(C(=O)Nc3ccccc3SC)=C2)c1,inactive: 97%
2,CCOc1ccc(S(=O)(=O)NCCc2csc3nc(-c4ccc(F)cc4)nn23)cc1,inactive: 99%
3,Cc1ccc(C)c(Cn2c(=O)n(Cc3ccccc3)c(=O)c3c2c2cc(C)ccc2n3C)c1,inactive: 83%
4,CCCC(=O)Nc1cc(C)c(NC(=O)CCC)cn1,inactive: 91%
5,O=C(NCc1cccs1)c1ccc(CSc2nc3ccncc3n2Cc2ccccc2)cc1,inactive: 127%
6,CC1CCC(NC(=O)c2ccc(CS(=O)(=O)c3cccc(C(F)(F)F)c3)o2)CC1 (configuration not stated),inactive: 95%
7,Cc1ccc(Cl)cc1N1CCN(CCCNC(=O)C2COc3ccccc3C2)CC1 (configuration not stated),inactive: 77%
8,Cc1ccc(C(=O)Nc2ccc(S(=O)(=O)Nc3onc(C)c3C)cc2)cc1,inactive: 75%
9,CCOC(=O)c1ccc(NC(=O)Cn2c(=O)cc(C(F)(F)F)c3c(C)nn(C)c32)cc1,inactive: 66%
10,COc1ccc(CNC(=O)Cn2c(=O)cc(C)c3c(C)nn(-c4cccc(Cl)c4C)c32)cc1,inactive: 80%
11,CCc1ccc2nc3sc(C(N)=O)c(N)c3cc2c1,inactive: 109%
12,Fc1ccc(CSc2nc(NCc3ccccc3)c3ccccc3n2)cc1,inactive: 63%
13,COc1ccc(-c2cc(C(=O)Nc3cccc(O)c3)on2)cc1OC,inactive: 88%
14,COc1cc(NC(=O)NCCN2CCN(c3ccccc3)CC2)cc(OC)c1OC,inactive: 73%
15,COc1ccc(C(=O)NCCn2cc(SC(C)c3ccccc3)c3ccccc32)cc1OC (configuration not stated),inactive: 73%
16,Cc1ccc(N(C)C(=O)CCS(=O)(=O)c2cc3c(cc2Cl)NC(=O)CO3)cc1,inactive: 88%
17,O=C1CSC(=O)N1CCOc1ccc(F)cc1,inactive: 107%
18,CCOC(=O)Cn1cnc2scc(-c3ccccc3)c2c1=O,inactive: 115%
19,Nc1cnc2cccc3c2c1-c1ccccc1C3=O,inactive: 133%
